Results as given in article PMC4336329 (PLoS ONE, 2015).
The campaign covered roughly 310,000 compounds. About 14,000 (4.5%) showed an effect of 50% or more. The effect is printed as a negative number. Some of the results follow.

Target: human ether-à-go-go-related gene (hERG) potassium channel (human, UniProt Q12809)
Assay: primary screen, population patch clamp on CHO cells stably expressing hERG
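Note: peak tail current of the secondary pulse compared with the same well before compound.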

human ether-à-go-go-related gene (hERG) potassium channel, sequence (Q12809 whole entry, looked up): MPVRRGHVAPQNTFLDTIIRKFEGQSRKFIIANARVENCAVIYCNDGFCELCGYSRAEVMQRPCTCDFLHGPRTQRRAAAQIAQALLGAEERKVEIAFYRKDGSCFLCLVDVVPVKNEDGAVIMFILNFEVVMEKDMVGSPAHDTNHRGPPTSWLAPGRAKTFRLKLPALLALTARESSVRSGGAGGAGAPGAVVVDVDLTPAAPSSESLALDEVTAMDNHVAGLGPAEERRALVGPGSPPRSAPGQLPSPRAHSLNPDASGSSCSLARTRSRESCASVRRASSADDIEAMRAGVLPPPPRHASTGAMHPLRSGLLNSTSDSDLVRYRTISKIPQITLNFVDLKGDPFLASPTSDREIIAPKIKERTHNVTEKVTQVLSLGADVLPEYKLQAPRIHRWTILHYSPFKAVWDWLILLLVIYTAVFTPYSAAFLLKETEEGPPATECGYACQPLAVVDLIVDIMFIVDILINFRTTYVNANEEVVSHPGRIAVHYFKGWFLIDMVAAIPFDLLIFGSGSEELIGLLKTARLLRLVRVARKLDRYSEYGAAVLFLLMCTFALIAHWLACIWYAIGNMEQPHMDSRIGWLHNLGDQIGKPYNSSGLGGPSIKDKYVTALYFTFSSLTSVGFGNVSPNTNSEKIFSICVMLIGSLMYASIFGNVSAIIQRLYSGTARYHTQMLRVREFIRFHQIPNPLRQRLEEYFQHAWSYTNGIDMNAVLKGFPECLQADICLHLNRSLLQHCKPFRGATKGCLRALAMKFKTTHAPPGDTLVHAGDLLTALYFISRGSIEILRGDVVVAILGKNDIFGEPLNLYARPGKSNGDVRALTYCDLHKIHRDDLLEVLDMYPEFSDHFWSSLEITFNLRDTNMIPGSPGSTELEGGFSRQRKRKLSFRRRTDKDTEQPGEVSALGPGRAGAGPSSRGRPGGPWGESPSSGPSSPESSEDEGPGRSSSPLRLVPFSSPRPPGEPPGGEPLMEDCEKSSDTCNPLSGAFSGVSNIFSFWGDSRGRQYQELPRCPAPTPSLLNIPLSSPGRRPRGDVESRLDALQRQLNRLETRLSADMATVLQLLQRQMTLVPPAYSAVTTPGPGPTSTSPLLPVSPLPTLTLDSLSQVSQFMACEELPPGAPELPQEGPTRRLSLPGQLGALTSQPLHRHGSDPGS

| Compound | hERG current change (%, negative = inhibition) at 10uM [%] |
| --- | --- |
| COC(=O)CSc1nc2c(cnn2-c2ccc(F)cc2)c(=O)[nH]1 | 22.1 |
| CCC(C)(C)NC(=O)CN(C(=O)CNS(=O)(=O)c1ccccc1)c1ccccc1 | 14.3 |
| CCOC(=O)C1=C(O)C(=O)N(c2ccc(S(N)(=O)=O)cc2)C1c1ccc(Br)cc1 (stereo not shown) | 3.66 |
| CN(C)CCCNC(=O)CC(c1ccc(F)cc1)c1ccco1 (stereo not shown) | -37.3 |
| O=C(O)C1CCC(N2C(=O)c3c(Cl)c(Cl)c(Cl)c(Cl)c3C2=O)CC1 (stereo not shown) | 11.8 |
| Cc1ccc(OCC(=O)NCc2ccco2)cc1C | 4.64 |
| COc1ccc(C2=NO[C@@H]3C(=O)N(c4cccc(C)c4C)C(=O)[C@H]23)cc1OC | 4.33 |
| Cc1ccc(NC(=O)c2cc(S(=O)(=O)NCCC3=CCCCC3)ccc2F)cc1 | 3.06 |
| CC1CCc2c(sc(NC(=O)c3c([N+](=O)[O-])cnn3C)c2C(N)=O)C1 (stereo not shown) | 9.17 |
| Cc1ccccc1Nc1nc(N)nc(COC(=O)c2ccc(S(=O)(=O)N(C)C)cc2)n1 | -3.72 |
| Cc1ccc(CC2C(=O)N(c3cc(C)ccc3C)C(=O)C2C)cc1 (stereo not shown) | -1.06 |
| COCCN(CCOC)C(=S)Nc1ccccc1 | 12.4 |
| O=C1CC(C(=O)N2CCC3(CC2)OCCO3)CN1CCc1ccccc1 (stereo not shown) | 18.7 |
| Cc1cccc(-c2nnn(CC/C(N)=N/O)n2)c1 | 1.26 |
| NNC(=O)CN1C(c2cccc(Cl)c2)=Nc2ccc(Br)cc2C1c1ccccc1 (stereo not shown) | -27.4 |
| N#CC(c1ccc(Cl)cc1)c1nc2ccccc2nc1C(F)(F)F (stereo not shown) | 11.5 |
| Cc1ccc(-c2nc3cc(Br)cnc3nc2-c2ccc(C)cc2)cc1 | -9.29 |
| Cc1ccc(NC(=O)N(Cc2cc3cc(C)cc(C)c3[nH]c2=O)CC2COCCO2)cc1 (stereo not shown) | -5.07 |
| COc1ccc(-c2oc3ccccc3c(=O)c2OC(C)=O)cc1 | -11.3 |
| COc1ccc(-c2cn3cccnc3n2)cc1NC(=O)c1ccc(Br)o1 | -10.7 |
| O=[N+]([O-])c1ccc(N2CCCCC2)cc1SCCO | -16.7 |
| Cc1cc(C)cc(OCC(=O)Nc2ccc(CN3CCCCC3)cc2)c1 | -43.7 |

| Compound | hERG current change (%, negative = inhibition) at 10uM [%] |
| --- | --- |
| O=C(CSc1nnc(-c2cccnc2)n1Cc1ccccc1)NCc1ccco1 | -1.17 |
| Cn1c(SCC(=O)Nc2ccc(F)cc2F)nnc1-c1cccnc1 | -5.64 |
| COc1cccc(C(=O)NCC(c2ccco2)N2CCc3ccccc3C2)c1 (stereo not shown) | -17 |
| COCCCNc1nc2c(c(=O)n(Cc3cccc(Br)c3)c(=O)n2C)n1C | -7.68 |
| COc1ccc(NC(=O)COC(=O)C2CCC(C(C)(C)C)CC2)c([N+](=O)[O-])c1 (stereo not shown) | 19.4 |
| COc1cc(/C=N/NC(=O)/C(=C\c2ccc([N+](=O)[O-])cc2)NC(=O)c2ccccc2)cc(OC)c1O | -14 |
| Cc1nc2ccccc2c2c1CC(C(C)(Cl)Br)O2 (stereo not shown) | -61.6 |
| O=S(=O)(Cc1ccccc1)N1CCN(Cc2ccc(F)cc2Cl)CC1 | 4.56 |
| COCCN(CC(=O)Nc1cccc(C)c1C)C(=O)c1cc(-c2cccs2)nn1-c1ccccc1 | 1.14 |
| O=C(O)CCS(=O)(=O)Cc1ccccc1Cl | 12.1 |
| O=C(NCCS(=O)(=O)c1ccc(Br)cc1)c1ccc(F)cc1 | 5.9 |
| O=C(CCN1C(=O)/C(=C/c2ccccc2Cl)SC1=S)NCCCN1CCOCC1 | -15.8 |
| COc1ccc(CN2C(=O)NC(=O)/C(=C\c3ccco3)C2=O)cc1 | 27.2 |
| C=CCNC(=S)N1CCC(C(=O)c2ccc(F)cc2)CC1 | -44.4 |
| Cc1ccc(OCCOCCN2CCN(C)CC2)c(C(C)(C)C)c1.O=C(O)C(=O)O | -1.1 |
| COc1ccc(C(C)NC(=O)Nc2ccc(C(C)=O)cc2)cc1OC (stereo not shown) | 12 |
| N/C(=N/OC(=O)c1cccc([N+](=O)[O-])c1)c1cccc([N+](=O)[O-])c1 | 19.3 |
| CCOc1ccccc1NC(=O)NCc1ccco1 | 8.52 |
| COc1ccc(Cl)cc1C(=O)NCCCn1ccnc1 | 4.53 |
| COc1cc(CN2CCN(Cc3c[nH]c4ccccc34)CC2CCO)cc(OC)c1 (stereo not shown) | -32.3 |
| Cc1ccc(C(=O)CSc2nnc(COc3cccc(C)c3)o2)cc1 | -0.502 |
| CCN(CC)C(=O)Oc1ccc2oc(=O)cc(-c3cc4cccc(OC)c4o3)c2c1 | 4.26 |

| Compound | hERG current change (%, negative = inhibition) at 10uM [%] |
| --- | --- |
| CC(O)C1C(=O)OC2(C)CC(C)(C)NC(=S)N12 (stereo not shown) | 3.17 |
| CCNS(=O)(=O)c1ccc(NC(=O)c2ccc(Cn3cc([N+](=O)[O-])cn3)o2)cc1 | -34.8 |
| CCc1nc2ccccc2c(C(=O)O)c1C | -1.62 |
| CCOc1cc(CNCCCN2CCOCC2)ccc1OCC(=O)Nc1cccc2ccccc12.Cl | -7.77 |
| Cc1cc(NC(=O)c2ccc(Cl)cc2)cc(C)c1OCC(=O)N1CCOCC1 | -52.4 |
| CCOc1ccc(CC2NCCc3cc(OCC)c(OCC)cc32)cc1OCC (stereo not shown) | -13.3 |
| O=C(NC(=S)Nc1ccc(Cl)c(C(=O)O)c1)c1ccco1 | -3.52 |
| CN(C)S(=O)(=O)c1ccc(C(=O)Nc2cccnc2)cc1 | -22.2 |
| Cn1c(=O)[nH]c(=O)c2c1nc(SCCN1CCCCC1)n2Cc1ccccc1 | -78.9 |
| CCCCN(CCO)CCCC | 14 |
| Fc1ccc(-n2cnnn2)c(F)c1 | 2.55 |
| O=C(O)Cc1sc(-c2ccc(Cl)cc2)nc1-c1ccccc1 | 2.93 |
| N#Cc1ccc(CSc2nnc(-c3ccccn3)n2-c2ccc(Cl)cc2)cc1 | -51.8 |
| Cc1ccc(N2CC(C(=O)Nc3ccc(S(=O)(=O)NCC4CCCO4)cc3)CC2=O)cc1 (stereo not shown) | 9.06 |
| N#C/C(=C\c1cccnc1)C(=O)Nc1ccc(S(N)(=O)=O)cc1 | 5.43 |
| Cc1cc2nc3s/c(=C/c4ccc(-c5ccccc5C(=O)O)o4)c(=O)n3c2cc1C | 19.3 |
| CN(Cc1cnn(C)c1)C(=O)C1CCC(=O)N(Cc2ccc(Cl)cc2)C1 (stereo not shown) | -9.64 |
| N#C/C(=C\c1ccc(O)c(Br)c1)C(=O)N1CCCCC1 | 5.9 |
| N#CCCCn1c(-c2ccccc2)noc1=O | -7.09 |
| Cc1c(C(=O)N2CCOCC2)c(S(=O)(=O)Nc2ccc(F)cc2)c(C)n1C | 15.5 |
| N#Cc1c(NC(=O)c2nc3ncccn3n2)sc2c1CCCCC2 | 2.44 |
| O=C(Nc1cccc(/C=C/c2ccccn2)c1)c1ccc(-n2cncn2)c([N+](=O)[O-])c1 | -24.9 |

| Compound | hERG current change (%, negative = inhibition) at 10uM [%] |
| --- | --- |
| Cc1ccc(-c2nc(=O)[nH]c3ccccc23)cc1 | -20 |
| COc1ccc(S(=O)(=O)N2CCOCC2)cc1NC(=O)[C@@H]1CCCN1C(=O)c1cccs1 | -12.8 |
| COc1ccnc(N=CNOCc2ccc(Cl)cc2)c1C#N | 15.5 |
| Cc1cccc(CN2CCC(CNC(=O)C3CCCN(S(=O)(=O)c4cnc[nH]4)C3)CC2)c1 (stereo not shown) | -1.13 |
| Cc1ccc(N(C)S(=O)(=O)c2ccc(-c3cc(C)no3)s2)cc1 | 8.09 |
| Cc1nc(-c2ccccc2)sc1-c1nc(-c2cccnc2)ncc1S(=O)(=O)c1ccccc1 | -6.63 |
| COc1cccc2cc(C(C)N(CCCN3CCOCC3)C(=S)Nc3cc(C)cc(C)c3)oc12 (stereo not shown) | 5.36 |
| Cc1nc(-c2cc(-c3nc(-c4ccc(C(F)(F)F)cc4)no3)no2)cs1 | -28.6 |
| Cc1ccc(O)c(C(CC(=O)NCc2ccco2)c2ccccc2)c1 (stereo not shown) | 1.71 |
| CC(=O)Oc1ccc(-c2nc3ccccc3c(=O)o2)cc1 | 8.78 |
| CC(=O)c1cc(-c2ccccc2)n(CCC(=O)NC(C)(C)C)c1C | 8.01 |
| COc1cccc(C2CC(c3c(-c4ccccc4)c4cc(Cl)ccc4[nH]c3=O)=NN2S(C)(=O)=O)c1OC (stereo not shown) | 7.42 |
| CCCC1(c2ccccc2)NC(=O)N(CC(=O)NCc2ccc(OC)cc2)C1=O (stereo not shown) | 3.18 |
| OCCCc1n[nH]c(=S)n1-c1ccccc1 | 8.54 |
| C=CCOc1c2ccc(C(=O)N(CC)c3ccc(OC)cc3)cc2nn1C | 14.1 |
| CCS(=O)(=O)N1CCCC(C(=O)NCCCOC)C1 (stereo not shown) | 23.5 |
| Cc1c(C=O)c2ccccc2n1Cc1ccc(F)cc1 | -43.1 |
| Cc1ccc(NS(=O)(=O)c2c(C)[nH]c(=O)[nH]c2=O)cc1C | 2.52 |
| CCOc1ccsc1C(=O)OC | 11.1 |
| O=C1c2cccc3cccc(c23)N1Cc1ccc(F)cc1 | -25.2 |
| Cc1nn(CCC(=O)NNC(=S)Nc2cccc(Cl)c2)c(C)c1[N+](=O)[O-] | 5.42 |
| CC1CCC(NC(=O)COC(=O)CSc2ccc(C(N)=O)cc2[N+](=O)[O-])CC1 (stereo not shown) | -2.16 |
